# Assay results: publication PMC4336329 (PLoS ONE, 2015)
# The campaign covered roughly 310,000 compounds. About 14,000 (4.5%) showed an effect of 50% or more. Effects have a minus sign here. This is one part of the list.
# Target: human ether-à-go-go-related gene (hERG) potassium channel (human, UniProt Q12809)
# Experiment: primary screen, population patch clamp on CHO cells stably expressing hERG
# 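Note: peak tail current of the secondary pulse compared with the same well before compound.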
# Sequence of human ether-à-go-go-related gene (hERG) potassium channel (Q12809 whole entry, looked up): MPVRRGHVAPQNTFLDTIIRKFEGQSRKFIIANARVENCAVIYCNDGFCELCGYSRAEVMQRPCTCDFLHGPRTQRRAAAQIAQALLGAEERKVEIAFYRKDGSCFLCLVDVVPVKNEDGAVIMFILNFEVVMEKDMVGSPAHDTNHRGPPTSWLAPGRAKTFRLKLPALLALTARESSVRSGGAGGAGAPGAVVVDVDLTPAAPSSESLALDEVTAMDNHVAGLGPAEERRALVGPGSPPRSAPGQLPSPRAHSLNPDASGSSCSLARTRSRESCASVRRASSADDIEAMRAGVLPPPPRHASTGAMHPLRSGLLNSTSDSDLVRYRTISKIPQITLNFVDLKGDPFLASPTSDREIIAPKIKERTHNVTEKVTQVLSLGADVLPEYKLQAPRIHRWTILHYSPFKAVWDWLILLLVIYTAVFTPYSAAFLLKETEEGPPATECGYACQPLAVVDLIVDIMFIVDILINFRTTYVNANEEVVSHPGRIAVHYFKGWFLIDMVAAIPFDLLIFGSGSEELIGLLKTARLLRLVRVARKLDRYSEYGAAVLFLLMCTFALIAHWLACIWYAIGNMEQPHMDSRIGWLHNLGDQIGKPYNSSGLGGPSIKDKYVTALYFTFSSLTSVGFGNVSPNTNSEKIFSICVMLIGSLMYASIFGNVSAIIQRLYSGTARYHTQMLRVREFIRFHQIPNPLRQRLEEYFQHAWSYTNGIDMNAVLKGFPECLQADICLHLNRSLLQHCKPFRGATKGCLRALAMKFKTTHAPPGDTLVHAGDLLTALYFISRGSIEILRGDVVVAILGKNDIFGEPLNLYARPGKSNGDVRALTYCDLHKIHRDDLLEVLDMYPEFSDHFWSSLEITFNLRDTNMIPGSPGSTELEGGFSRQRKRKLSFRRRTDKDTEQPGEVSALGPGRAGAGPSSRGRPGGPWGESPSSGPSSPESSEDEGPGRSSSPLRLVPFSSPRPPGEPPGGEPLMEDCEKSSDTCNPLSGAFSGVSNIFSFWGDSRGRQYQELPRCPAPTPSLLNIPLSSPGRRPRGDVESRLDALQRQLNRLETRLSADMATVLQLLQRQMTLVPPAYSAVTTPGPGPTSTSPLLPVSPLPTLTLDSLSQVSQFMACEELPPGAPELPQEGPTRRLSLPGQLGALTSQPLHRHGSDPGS
row,SMILES,"hERG current change (%, negative = inhibition) at 10uM [%]"
1,CCC(=O)c1ccc(N2CCN(C(=O)c3ccccc3)CC2)c(F)c1,-70.1
2,CCOC(=O)N/N=C/c1ccc(OCCSc2ccc(Cl)cc2)c(OCC)c1,-9.33
3,Cc1nc2c(C)cccn2c(=O)c1NC(=O)c1ccco1,-6.74
4,Cc1cc(C(=O)OCC(=O)N(C)c2c(N)n(Cc3ccccc3)c(=O)[nH]c2=O)c(C)n1-c1ccccc1,3.48
5,CS(=O)(=O)N1CCN(C(=O)c2cc(-c3cccnc3)nc3ccc(Cl)cc23)CC1,0.512
6,Cc1ccc(S(=O)(=O)c2c(C)c(C)c(C)[nH]c2=O)cc1,14.9
7,CCOc1ccccc1NC(=O)C1CCCN(S(=O)(=O)c2cccc3cccnc23)C1 (stereo not drawn),-8.06
8,Cc1nc(C)c(-c2csc(Nc3ccc(F)cc3)n2)s1,-25.1
9,C=CCCN(Cc1ccccc1)S(=O)(=O)c1ccccc1Br,3.42
10,CC(C)(C)NCCOCCOc1ccccc1-c1ccccc1.O=C(O)C(=O)O,-28.6
11,O=C(c1ccco1)N1CCN(C(=O)c2sccc2-c2ccccc2)CC1,-8.12
12,Cc1ccc(CCN2CC(C(=O)NCCCN3CCC(C)CC3)CC2=O)cc1 (stereo not drawn),9.28
13,CC(NC(=O)Nc1cccc(F)c1)c1ccc2c(c1)OCO2 (stereo not drawn),15.4
14,CCOc1ccc(S(=O)(=O)N2CCC(C(=O)NCCN3CCOCC3)CC2)cc1C,1.77
15,COc1ccccc1NC(=O)N1CCN(C)CC1,17.9
16,COc1ccc(/C=N/NC(=O)c2cc(-c3ccccc3OC(C)C)nc3ccccc23)cc1CN1CCOCC1,-4.54
17,CN1/C(=C\C(=O)c2cncc(Br)c2)C(C)(C)c2ccccc21,2.55
18,CNC(=O)c1sc(-c2ccc(Cl)cc2)nc1C,9.02
19,CN(C)S(=O)(=O)Nc1ccccn1,16.5

row,SMILES,"hERG current change (%, negative = inhibition) at 10uM [%]"
1,CCOC(=O)c1ccc(NC(=O)CCc2nnc3ccc(N4CCN(C)CC4)nn23)cc1,6.9
2,Cn1cnc([N+](=O)[O-])c1Nc1ccccc1O,11.6
3,COc1ccc(S(=O)(=O)N2CCN(C(=O)CC(C)C)CC2)cc1,12
4,NC(=S)Nc1cccc(F)c1,8.59
5,Cc1nc2c(F)c(F)c(C(F)(F)F)c(F)c2[nH]1,-8.71
6,O=C(Cc1cccs1)Nc1cccc(-c2nc3cc4ccccc4cc3[nH]2)c1,1.42
7,Br.O=C(Cn1c(NCCCO)nc2ccccc21)c1cccc(Br)c1,-9.87
8,Cc1ccc(Cn2ccc(NC(=O)c3cc4nc(-c5ccco5)cc(C(F)(F)F)n4n3)n2)cc1,3.04
9,O=C(O)CSc1nnc(COc2cccc3cccnc23)n1-c1ccc(Cl)cc1,8.71
10,CN(CC(=O)N1CCN(Cc2ccccc2)CC1)S(=O)(=O)c1ccc(F)cc1,-28.7
11,Cc1ccc(C(=O)NCc2ccco2)cc1S(=O)(=O)Nc1cccc(C)c1C,-32.2
12,c1cnc(-c2nnc3n2CCCCC3)cn1,17.3
13,Cc1cccc(C)c1Nc1nnc(SCC(=O)Nc2sccc2C#N)s1,-9.87
14,C=CCOc1ccc(Br)cc1CNCCO.Cl,0.469
15,CCOc1ccc(N2C(=O)CC(N(C)Cc3ccccc3)C2=O)cc1 (stereo not drawn),25.8
16,COc1ccc(OCC(O)CNCc2ccco2)cc1 (stereo not drawn),1.32
17,CCn1c(=O)cc(OCC(=O)N2CCN(c3cccc(C(F)(F)F)c3)CC2)c2ccccc21,-48.2
18,CC(c1ccccc1)C(Cc1nc2ccccc2[nH]1)c1nc2ccccc2[nH]1 (stereo not drawn),-20.9
19,O=C(N/N=C/C=C\c1ccccc1[N+](=O)[O-])c1cc(-c2ccccc2)nc2ccccc12,12.4

row,SMILES,"hERG current change (%, negative = inhibition) at 10uM [%]"
1,Cc1cc(=O)[nH]c(-n2[nH]c3c(c2=O)CCCC3)n1,8.28
2,N#CCCn1c(=O)n(CCC#N)c2ccccc21,12
3,CC(C)Cn1c(=O)c(C(=O)NCc2ccccn2)c(O)c2ccccc21,-12.9
4,O=C(c1ccco1)N1CCN(Cc2cc(=O)c(OCc3ccc(F)cc3)co2)CC1,-62.2
5,Cc1cc(OCC(=O)N2CCOCC2)cc2oc(=O)c3ccccc3c12,-0.691
6,COc1cc(CCC(=O)NNC(=O)c2ccc(C)cc2)cc(OC)c1OC,4.59
7,Cc1ccc(S(=O)(=O)N=S(CC2CC2(Cl)Cl)CC2CC2(Cl)Cl)cc1 (stereo not drawn),-19.8
8,COc1ccccc1N1CCN(C(=O)c2cc3ccccc3[nH]2)CC1,0.954
9,COc1ccc(CCN(C)C(=O)CSc2ncnc3sccc23)cc1OC,11.2
10,C/C(=N\Nc1ccc(F)cc1F)c1ccc(F)cc1,9.16
11,Cc1ccc(CNC(=O)COC(=O)c2ccc(S(=O)(=O)N3CCCC3)cc2)cc1,-8.84
12,Cc1cccc(N2CCN(C(=O)c3cccn4c(=O)c5c(C)c(C)sc5nc34)CC2)c1C,21.6
13,COc1ccccc1/C=N/NC(=O)Cn1cnc([N+](=O)[O-])n1,9.01
14,c1ccc(CNc2ncnc3sc4c(c23)CCC4)nc1,-19.8
15,Cc1ccc(C)c(NC(=O)COC(=O)CC2c3ccccc3CCN2S(=O)(=O)c2ccc(F)cc2)c1 (stereo not drawn),5.51
16,O=C(CCn1c(=O)c2cccn2c2cccnc21)NCc1cccc(Cl)c1,6.6
17,COc1ccc(S(=O)(=O)N2CCCC(C(=O)N3CCOCC3)C2)cc1OC (stereo not drawn),24.3
18,O=S1(=O)CC2SC(=S)N(Cc3ccccc3)C2C1 (stereo not drawn),-3.44
19,COc1cc(-c2[nH]nc3c2C(c2ccco2)C(C#N)=C(N)O3)cc(OC)c1OC (stereo not drawn),9.37
